The structures appear in SMILES notation.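 Protocol summary: plate cells (96-well), add compound at 5 concentrations, incubate 48 h, interpolate endpoints linearly. GI50 is the concentration that inhibits growth by half.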 Some entries of the source have several records that differ or are many. This list holds those alone. The source may hold further records. The tests behind the records often covered other concentration ranges, not given here; some values may only mark the edge of a range.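 Definition used: TGI = concentration required for complete inhibition of growth.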

Test systems include ACHN renal; HS 578T breast; SK-MEL-5 melanoma; SK-OV-3 ovarian; SW-620 colon; U251 CNS; 786-0 renal; A498 renal; A549 NSCLC; CCRF-CEM leukemia; COLO 205 colon; HCT-116 colon; HCT-15 colon; HOP-62 NSCLC; HOP-92 NSCLC; HT29 colon; IGROV1 ovarian; KM12 colon; M14 melanoma; MALME-3M melanoma; MOLT-4 leukemia; NCI-H23 lung; NCI-H460 lung; NCI-H522 lung; OVCAR-3 ovarian; OVCAR-4 ovarian; OVCAR-5 ovarian; OVCAR-8 ovarian; RPMI-8226 leukemia; RXF 393 renal; SF-268 CNS; SF-295 CNS; SF-539 CNS; SK-MEL-2 melanoma; SK-MEL-28 melanoma; SN12C renal; SNB-19 CNS; SNB-75 CNS; SR leukemia; TK-10 renal; UACC-257 melanoma; UO-31 renal; BT-549 breast; NCI-H226 lung; NCI/ADR-RES ovarian; DU-145 prostate.

Holding throughout (assay): NCI tumour cell line growth inhibition, 48 h

Take `Nc1ncnc2c(C3OC(CO)C(O)C3O)c[nH]c12` (stereo not drawn): the TGI was 268 nM and < 11.6 nM with ACHN renal; 33.8 nM and 4.34 µM with HS 578T breast; 29.6 nM and 457 nM with SK-MEL-5 melanoma; 6.08 nM and > 100 µM with SK-OV-3 ovarian; 393 nM and 4.89 µM in the experiment with SW-620 colon; 693 nM and > 32.8 µM in the experiment on U251 CNS.
As for `O=C1/C(=C/c2ccc(Cl)c(Cl)c2)CN(C(=O)CCN2CCOCC2)C/C1=C\c1ccc(Cl)c(Cl)c1`, the GI50 with 786-0 renal is 2.37 nM, 1.5 µM, 194 nM; in the experiment on A498 renal, 46.1 nM and 2.55 µM; in the experiment on A549 NSCLC, 13.5 nM, 2.59 µM, 2.27 µM; in the experiment with ACHN renal, 22.8 nM, 1.78 µM, 1.48 µM; in the experiment with CCRF-CEM leukemia it was 4.2 nM, 272 nM, 287 nM; in the experiment on COLO 205 colon, 3.77 nM, 1.83 µM, 1.41 µM. Moreover, the GI50 in the experiment with HCT-116 colon is 2.62 nM, 240 nM, 358 nM; in the experiment on HCT-15 colon, 2.49 nM, 559 nM, 276 nM; with HOP-62 NSCLC it was 9.48 nM, 3.13 µM, 2.26 µM; in the experiment with HOP-92 NSCLC, 71.7 nM, 2.34 µM, 1.78 µM; with HT29 colon, 5.59 nM and 303 nM; with IGROV1 ovarian it was 6.47 nM, 2.13 µM, 1.29 µM. For the same compound, the GI50 with KM12 colon is reported as 3.06 nM, 342 nM, 165 nM; with M14 melanoma, 14.8 nM, 1.8 µM, 1.83 µM; in the experiment on MALME-3M melanoma, 32.7 nM, 2.11 µM, 2.18 µM; in the experiment with NCI-H23 lung it was 12.6 nM, 1.99 µM, 2.55 µM; with NCI-H460 lung, 13.4 nM, 2.1 µM, 1.78 µM; in the experiment with NCI-H522 lung it was 5.55 nM, 1.43 µM, 238 nM. The GI50 in the experiment on OVCAR-5 ovarian is listed as 23.9 nM, 1.81 µM, 2.08 µM; with OVCAR-8 ovarian, 3.3 nM, 204 nM, 2.7 µM; in the experiment on RPMI-8226 leukemia it was 1.48 nM, 193 nM, 128 nM; in the experiment on RXF 393 renal it was 2.72 nM, 1.92 µM, 1.32 µM; with SF-268 CNS, 4.74 nM, 1.38 µM, 1.19 µM; in the experiment on SF-295 CNS it was 10.3 nM, 2.32 µM, 527 nM. For the same compound, the GI50 was 12.6 nM, 1.41 µM, 509 nM in the experiment on SF-539 CNS; 14.5 nM, 2.13 µM, 1.81 µM in the experiment with SK-MEL-2 melanoma; 23.7 nM, 2.11 µM, 1.83 µM in the experiment with SK-MEL-28 melanoma; 19.6 nM, 2.67 µM, 1.85 µM in the experiment on SK-MEL-5 melanoma; 33.9 nM, 2.26 µM, 2.55 µM in the experiment on SK-OV-3 ovarian; 1.91 nM, 1.6 µM, 449 nM in the experiment with SN12C renal. Further, the GI50 with SNB-19 CNS is 1.8 µM and 169 nM; with SNB-75 CNS it was 113 nM, 2.18 µM, 2.89 µM; in the experiment with SR leukemia, 5.11 nM and 111 nM; in the experiment on TK-10 renal, 31.9 nM and 2.78 µM; in the experiment with U251 CNS, 23.2 nM, 784 nM, 411 nM; in the experiment with UACC-257 melanoma it was 31.8 nM, 2.26 µM, 2.24 µM. For the same compound, the GI50 with UO-31 renal is recorded as 17.3 nM, 1.82 µM, 1.77 µM. Besides, the TGI with 786-0 renal is 4.66 nM, 2.87 µM, 398 nM; in the experiment on A498 renal, 91.5 nM and 6.52 µM; with A549 NSCLC, 63.9 nM, 6.38 µM, 5.27 µM; in the experiment on ACHN renal, 59.9 nM, 3.26 µM, 3.18 µM; in the experiment with CCRF-CEM leukemia, > 10 µM, 727 nM, 658 nM; with COLO 205 colon it was 13.9 nM, 3.35 µM, 3.79 µM. Also, the TGI in the experiment with HCT-116 colon is 10.4 nM, 746 nM, 1.07 µM; with HCT-15 colon it was 9.93 nM, 1.85 µM, 758 nM; in the experiment on HOP-62 NSCLC it was 33.5 nM, 7.62 µM, 4.86 µM; in the experiment on HOP-92 NSCLC, 294 nM, 5.12 µM, 4.19 µM; in the experiment on HT29 colon, 29.6 nM and 1.04 µM; in the experiment on IGROV1 ovarian, 20.9 nM, 4.55 µM, 3.02 µM. Further, the TGI in the experiment on M14 melanoma was 32.6 nM, 3.21 µM, 3.45 µM; in the experiment on MALME-3M melanoma, 89.2 nM, 4.04 µM, 4.09 µM; in the experiment on MOLT-4 leukemia, 26.4 nM and 528 nM; with NCI-H23 lung it was 75 nM, 4.25 µM, 5.91 µM; with NCI-H460 lung it was 40 nM, 4.28 µM, 4.06 µM; in the experiment on NCI-H522 lung, 19.4 nM, 2.78 µM, 674 nM. The TGI with OVCAR-3 ovarian is 17.2 nM and 2.38 µM; with OVCAR-4 ovarian, 23.9 nM and 3.58 µM; with OVCAR-5 ovarian, 65 nM, 3.38 µM, 3.76 µM; with OVCAR-8 ovarian, 9.04 nM, 437 nM, 6.6 µM; in the experiment with RPMI-8226 leukemia, 9.15 nM, 509 nM, 429 nM; in the experiment with RXF 393 renal, 7.21 nM, 3.43 µM, 2.67 µM. Moreover, the TGI with SF-268 CNS is given as 21.6 nM, 4.5 µM, 2.92 µM; with SF-295 CNS it was 43.4 nM, 5.36 µM, 1.97 µM; in the experiment with SF-539 CNS it was 30.8 nM, 2.96 µM, 1.89 µM; in the experiment on SK-MEL-2 melanoma, 39.9 nM, 4.91 µM, 3.61 µM; in the experiment with SK-MEL-28 melanoma, 58.1 nM, 4.12 µM, 3.72 µM; with SK-MEL-5 melanoma, 45.8 nM, 4.25 µM, 3.49 µM. Moreover, the TGI in the experiment with SK-OV-3 ovarian was 95.6 nM, 4.43 µM, 6.35 µM; with SN12C renal, 3.94 nM, 2.97 µM, 1.69 µM; in the experiment on SNB-19 CNS, > 10 µM, 4.04 µM, 420 nM; in the experiment on SNB-75 CNS, 240 nM, 5.42 µM, 7.83 µM; with SR leukemia, 9.89 nM and 401 nM; in the experiment with TK-10 renal it was 92.4 nM and 6.69 µM. In addition, the TGI in the experiment with U251 CNS is reported as 71.7 nM, 2.05 µM, 1.4 µM; with UACC-257 melanoma, 97.6 nM, 5.32 µM, 4.21 µM; with UO-31 renal, 33.5 nM, 3.38 µM, 3.26 µM.
In the case of `CCCCCCCCCC[C@@H](O)[C@H]1CC[C@@H]([C@H]2CC[C@H]([C@H](O)CCCCCCCCCC[C@@H]3CC(CC(C)=O)C(=O)O3)O2)O1` (stereo partly drawn), the TGI in the experiment on ACHN renal is 8.96 µM and > 100 µM; with BT-549 breast it was 9.36 µM and > 100 µM; with NCI-H226 lung it was 4.24 µM and 45.1 µM; with NCI/ADR-RES ovarian, 3.24 µM and > 100 µM; with SN12C renal, 7.39 µM and 76.3 µM; in the experiment on SNB-75 CNS, 7.8 µM and > 100 µM.
As for `C[C@H]1CC(=O)[C@@]2(O)C#C/C=C\C#C[C@@H]3Nc4c(cc(O)c5c4C(=O)c4ccccc4C5=O)[C@]24O[C@]314`, the TGI was 18.5 nM and 267 nM with CCRF-CEM leukemia; 15.1 nM and 519 nM with DU-145 prostate; 365 nM and 5.71 nM in the experiment with NCI-H226 lung; 12.7 nM and 547 nM in the experiment on NCI-H460 lung; 318 nM and > 25 µM in the experiment on TK-10 renal.

The values above are taken from PubChem BioAssay (NCI).
